The whole screen tested about 45,000 compounds, of which about 65 (0.1%) were called active. Calls follow the shape of the dose curve; as a rule, active = well fitted activation curve with a large enough effect; inconclusive = small, poorly fitted or top-dose-only effect; inactive = no such curve, though single readings can be large or run the other way. This is one part of the list.

The values that follow come from PubChem BioAssay AID1159614 (National Center for Advancing Translational Sciences (NCATS), 2016).

The target of the assay is Galactocerebrosidase (Homo sapiens) (UniProt P54803). As to the kind of experiment: A Novel Cell-Based Assay to Identify Small Molecules for B -Galactocerebrosidase. Also: 0% is about no effect; nearly all actives have a fitted effect of over 65% in size. To be noted: 145M-Twi-hGALC-G270D cells (Twitcher mouse brain line with human GALC G270D), HMU-beta-Gal fluorescence, 48 h; series mostly up to 57.5 µM; activation: at the top concentration. Put shortly: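 Fluorogenic HMU-b-Gal hydrolysis (0.1 mM final, pH 5.2 citrate-phosphate with 1 mg/mL sodium taurocholate; carbonate stop buffer) measures mutant GALC activity after compound treatment of live 145M-Twi Twitcher brain cells stably carrying human GALC-G270D, with wild-type GALC line alongside; activation sought.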
UniProt P54803, sequence (P54803 whole entry, looked up): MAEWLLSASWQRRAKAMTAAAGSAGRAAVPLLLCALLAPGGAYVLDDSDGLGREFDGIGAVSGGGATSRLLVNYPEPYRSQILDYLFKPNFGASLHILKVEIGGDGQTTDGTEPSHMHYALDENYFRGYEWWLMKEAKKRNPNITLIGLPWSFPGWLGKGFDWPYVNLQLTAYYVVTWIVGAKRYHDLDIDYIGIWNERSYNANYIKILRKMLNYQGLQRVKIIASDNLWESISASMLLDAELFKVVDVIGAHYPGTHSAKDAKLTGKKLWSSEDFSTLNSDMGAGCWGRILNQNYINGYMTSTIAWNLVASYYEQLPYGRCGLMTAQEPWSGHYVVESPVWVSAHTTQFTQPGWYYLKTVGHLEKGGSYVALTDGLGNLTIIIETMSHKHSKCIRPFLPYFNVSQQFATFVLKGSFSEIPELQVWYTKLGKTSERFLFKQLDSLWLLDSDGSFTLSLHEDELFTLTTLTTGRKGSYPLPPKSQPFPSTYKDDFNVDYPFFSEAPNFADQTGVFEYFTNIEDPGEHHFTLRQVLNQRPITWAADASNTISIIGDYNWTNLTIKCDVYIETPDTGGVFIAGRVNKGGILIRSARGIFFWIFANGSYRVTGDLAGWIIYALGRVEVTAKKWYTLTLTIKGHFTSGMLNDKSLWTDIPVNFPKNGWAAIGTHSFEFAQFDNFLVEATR
Take `Cc1csc2nc(CCNS(=O)(=O)c3ccc(F)cc3)cn12`: the “activation” value is inactive: -7.1%.
As to `CCCCSCCCNC(=O)C1CCC(CNS(=O)(=O)c2c(C)cc(C)cc2C)CC1` (stereo unspecified), the “activation” value was inactive: -3.2%.
Under `CCOc1ccc(CNC(=O)c2ccc3c(c2)nc2n3CCC(C)C2)cc1OC` (stereo unspecified) stands inactive: -11%; under `COc1cccc(C(=O)NC2CC(=O)N(c3ccc4c(c3)OCCO4)C2)c1OC` (stereo unspecified), inactive: -7.16%; under `CN1CCc2nc3sc(C(=O)Nc4ccccc4C(F)(F)F)c(N)c3cc2C1`, inactive: -22.2%.
The value for `COc1ccccc1Cc1nc2ccccc2nc1SCC(=O)NCc1ccccc1Cl` was inactive: -15.1%.
Under `CCOc1ccc(-n2nc3ccc(NC(=O)c4ccc(-c5cccc(Cl)c5)o4)cc3n2)cc1` stands inactive: -19.2%.
Regarding `Cc1ccc2c(=O)c(C(=O)c3cccc(Cl)c3)cn(CC(=O)Nc3ccccc3C(F)(F)F)c2n1`, the “activation” value is inactive: -11%.
Under `CC1=C(C(=O)OC2CCCCCC2)C(c2cccc(Cl)c2)CC(=O)N1` (stereo unspecified) stands inactive: 1.07%; under `CCCC1=Nc2cc(C(=O)N3CCC(C)CC3)ccc2Sc2ccc(C)cc21`, inactive: 18.3%; under `COc1ccccc1C(=O)OCc1cc(=O)n2nc(C(C)C)sc2n1`, inactive: -4.42%.
Under `CC1CCCCN1CCCNC(=O)c1cc(Sc2ccc(Cl)cc2)nc2ccccc12` (stereo unspecified) stands inactive: -10.4%; under `CCOC(=O)CC(=O)CSc1nc2ccccc2c(=O)n1CCc1ccc(S(N)(=O)=O)cc1`, inactive: -4.35%.
Take `COc1ccccc1CNC(=O)c1oc2ccc3c(c2c1C)C(=O)CC(C)(C)O3`: the “activation” value is inactive: -2.02%.
As to `COc1ccc(-c2noc(-c3ccc(NCC4CCCO4)c([N+](=O)[O-])c3)n2)cc1OC` (stereo unspecified), the “activation” value was inactive: -7.44%.
Under `CC(=O)Nc1ccc(NC(=O)CCS(=O)(=O)c2ccc3c(c2)CC(=O)N3C)cc1` stands inactive: 4.74%.
Under `CC1=Nc2cc(C(=O)NCCc3ccc(Cl)cc3)ccc2Sc2c(C)ccc(C)c21` stands inactive: -16.2%; under `CCOC(=O)N1CCc2c(sc3c2C(=O)NC(c2ccccc2F)N3)C1` (stereo unspecified), inactive: -9.22%; under `CCN1C(=O)C(Cc2nc3ccccc3c(=O)n2-c2ccc(OC)cc2)c2ccccc21` (stereo unspecified), inactive: -13.8%.
Under `COc1ccc(N2CC(NC(=O)COc3ccc4ccccc4c3)CC2=O)cc1OC` (stereo unspecified) stands inactive: 2.14%; under `CCOC(=O)C1CCC(CN(Cc2cccc(Br)c2)S(=O)(=O)c2ccc(Cl)cc2)CC1` (stereo unspecified), inactive: -4.25%; under `COc1ccc(NC(=O)Cn2cc(S(=O)(=O)Cc3ccc(F)cc3)c3ccccc32)cc1OC`, inactive: -17.8%.
As to `COc1ccc(NC(=O)c2cnc(N3CCCCC3)c3ccccc23)cc1Cl`, the “activation” value is inactive: -11.9%.
Turning to `CCN(CC)c1ccc(-c2nc(-c3ccco3)no2)cc1[N+](=O)[O-]`, the “activation” value is inactive: -28.8%.
The value for `CCC(C)NC(=O)c1sc2nc(C)c(C(=O)Nc3ccc(C)cc3C)c(-c3ccccc3Cl)c2c1N` (stereo unspecified) was inactive: -7.55%; that for `CCCCC1CCC(C(=O)N2CC(=O)Nc3ccc(Cl)cc3C2c2ccc(F)cc2)CC1` (stereo unspecified) was inactive: -24.8%; that for `COc1ccccc1CNc1nccn(-c2ccccc2)c1=O` was inactive: 19.2%.
With `Cc1ccc(-n2c(=O)c3c4c(sc3n(CC(=O)Nc3ccccc3C)c2=O)CCCCC4)cc1C`, the “activation” value is inactive: 0.567%.
The value for `Cc1ccc(CNC(=O)Cn2c(=O)n(Cc3ccc(F)cc3)c(=O)c3sc4ccccc4c32)cc1` was inactive: -13.6%; that for `Cn1cc(S(=O)(=O)N2CCCCC2)cc1C(=O)Nc1cccc(C#N)c1` was inactive: -16.1%; that for `Cc1ccc(CCNC(=O)c2ccc3c(=O)n(-c4ccccc4)c(=O)[nH]c3c2)cc1` was inactive: -15.6%.
Under `CCOC(=O)c1cccc2c1N[C@@H](c1ccc(F)cc1)[C@H]1CC=C[C@@H]21` stands inactive: -5.07%.
Under `CCCN(C(=O)Cn1ncc2c([nH]c3ccc(C)cc32)c1=O)c1ccccc1C` stands inactive: -8.55%; under `CCC(C)NC(=O)CN1C(=O)COc2ccc(S(=O)(=O)N3CCOCC3)cc21` (stereo unspecified), inactive: 21.4%; under `CCOc1ccccc1NC(=O)c1c(NCc2sccc2C)sc2c1CCC(C)C2` (stereo unspecified), inactive: -13.1%.
Take `COc1cccc(N2CC(NC(=O)/C=C\c3ccc(OC)c(OC)c3)CC2=O)c1` (stereo unspecified): the “activation” value is inactive: -16.3%.
Under `O=C(Nc1ccc(Cl)cc1)N1CCC(c2ccccc2)C1` (stereo unspecified) stands inactive: -6.75%; under `O=C(CCCCC(=O)Nc1c(I)cc(I)c(C(=O)O)c1I)Nc1c(I)cc(I)c(C(=O)O)c1I`, inactive: -12.9%.
The value for `Cn1c(Oc2ccc(Cl)cc2)nc2c1c(=O)n(Cc1ccc(F)cc1)c(=O)n2C` was inactive: -13.8%; that for `O=C(NCCc1ccccc1)c1ccc2c(c1)N(Cc1ccc(F)cc1)C(=O)c1ccccc1S2` was inactive: -11.8%.
Under `COc1ccc(C(=O)NC(c2ccc(Cl)cc2)c2cc(Cl)c3cccnc3c2O)cc1` (stereo unspecified) stands inactive: -9.88%; under `CCCCSc1nnc2c(n1)OC(C)N(C(C)=O)c1ccccc1-2` (stereo unspecified), inactive: -11.2%.
As to `CCc1ccccc1NC(=O)CC1Sc2ccc(C(F)(F)F)cc2NC1=O` (stereo unspecified), the “activation” value is inactive: 0.186%.
Consider `COc1ccc(CCNC(=O)Cc2c(C)c3cc4c(C)coc4c(C)c3oc2=O)cc1`, for which the “activation” value was inactive: 4.81%.
The value for `COc1ccc(CCNC(=O)C2COc3ccccc3C2)cc1OC` (stereo unspecified) was inactive: -21.7%; that for `COc1cc(Cl)c(C)cc1NC(=O)c1cnc(N2CCOCC2)c2ccccc12` was inactive: 2.81%.
The value for `Cc1cc(C)cc(NC(=O)CCC(=O)N2CCSc3ccccc32)c1` was inactive: -7.97%; that for `Cc1ccc(NC(=O)CN2C(=O)CC(C)Sc3ccccc32)c(C)c1` (stereo unspecified) was inactive: 5.7%.
The value for `CCOC(=O)c1cccc(NS(=O)(=O)c2cc3c(cc2C)NC(=O)CO3)c1` was inactive: -17.4%; that for `O=C(c1ccc(Nc2nc3ccccc3n3nnnc23)cc1)N1CCN(c2cccc(C(F)(F)F)c2)CC1` was inactive: -5.48%.
In the case of `Cc1ccc(C)c(NS(=O)(=O)c2cc3c4c(c2)C(C)C(=O)N4CCC3)c1` (stereo unspecified), the “activation” value is inactive: -10.8%.
The value for `Cc1cccn2c(=O)c3cc(C(=O)Nc4ccc(Cl)c(Cl)c4)sc3nc12` was inactive: -12%.
In the case of `Cc1ccc(S(=O)(=O)NCCc2csc(-c3cccc(F)c3)n2)cc1`, the “activation” value is inactive: -14.7%.
Regarding `Cn1c(SCc2ccc(Br)cc2)nc2c([nH]c3ccccc32)c1=O`, the “activation” value was inactive: 9.31%.
The value for `Cc1cc(C)n(C(C)CC(=O)NCc2ccc(Cl)cc2)n1` (stereo unspecified) was inactive: -16.4%; that for `Cc1ccc(OCC(=O)OCc2cc(=O)n3nc(C4CC4)sc3n2)cc1` was inactive: 4.85%.
In the case of `Cc1ccc(NC(=O)C2CCN(c3nnc(C)c4c(C)n(-c5ccccc5)nc34)CC2)cc1Cl`, the “activation” value is inactive: -17.5%.
Under `CCNC(=O)Cn1nc(C)n2c(cc3c(OC)cccc32)c1=O` stands inactive: -2.77%; under `Cc1c(Cl)cccc1-n1ncc(C(=O)N2CCOCC2)c1C1CCN(C(=O)OC(C)(C)C)CC1`, inactive: -18.8%.
The value for `COc1ccc(C(=O)NCCn2cc(SCC(=O)Nc3ccc4c(c3)OCCO4)c3ccccc32)cc1OC` was inactive: 1.01%.
Under `CC(C)CC1Nc2ccc(C(=O)NCCCOC(C)C)cc2NC1=O` (stereo unspecified) stands inactive: 1.43%; under `CCOC(=O)Cn1c(=O)n(-c2ccccc2OC)c2nc(-c3ccc(C(C)C)cc3)nc(C(N)=O)c21`, inactive: -13.9%.
For the compound `CCOC(=O)c1c(Oc2ccc(C(C)=O)cc2)nnc(-c2ccccc2)c1-c1ccccc1`, the “activation” value is inactive: -14.2%.
As for `CCc1nn2c(=O)cc(COC(=O)C(CC)c3ccccc3)nc2s1` (stereo unspecified), the “activation” value is inactive: -20.6%.
As for `CCN(CC)CCCNC(=O)c1ccc2c(Cl)c3c(nc2c1)CCCC3`, the “activation” value is inactive: -9.91%.
`COCCCNC(=O)C1CCN(c2cc(C)nc3c(-c4ccc(Cl)cc4)c(C)nn23)CC1`: the “activation” value is inactive: -7.06%.
The value for `CNCC[C@@H](Oc1ccccc1C)c1ccccc1` was inactive: -3.35%.
Under `O=C(CC1N=C2c3ccccc3N=C(SCC(=O)Nc3ccc(F)cc3)N2C1=O)NCc1cccs1` (stereo unspecified) stands inactive: -21.7%; under `COc1ccccc1N1CCN(CC(O)COc2cc(OC)c(OC)c(OC)c2)CC1` (stereo unspecified), inactive: -14.1%.
Under `CCCNC(=O)CSc1nc(-c2ccc(OC)cc2)cc(C(F)(F)F)n1` stands inactive: 0.224%; under `Cc1ccc(C(=O)C(C)CN2CCCCC2)cc1` (stereo unspecified), inactive: -5.42%; under `CN(C)c1ccc(NC(=O)CSC2=Nc3ccccc3C3=NC(CCC(=O)NCc4cccs4)C(=O)N23)cc1` (stereo unspecified), inactive: -18.9%.
For `COc1ccc2c(CNCc3cccs3)c(C(=O)O)n(Cc3ccccc3F)c2c1`, the “activation” value is inactive: -13.6%.
Under `O=C(NCc1ccccc1)c1ccc2oc(=O)n(Cc3ccccc3)c2c1` stands inactive: 2.5%; under `COc1ccc(CC(=O)N2CCc3cc(OC)c(OC)cc3C2COc2ccc(F)cc2)cc1OC` (stereo unspecified), inactive: -13.6%.
In the case of `CCOC(=O)COc1ccc(C)cc1C(=O)c1ccn2nc(-c3ccc(F)cc3)cc2n1`, the “activation” value was inactive: -10.2%.
The value for `CC1CCN(C(=O)c2cccc(NC(=O)c3nsc4ccccc34)c2)CC1` was inactive: -6.66%; that for `COc1cccc(C(=O)Nc2cccc(C(=O)OCc3cc(=O)n4c(C)csc4n3)c2)c1` was inactive: -30.9%; that for `Cn1c(SCC(=O)Nc2nc3ccccc3s2)ncc(C(=O)Nc2ccc(F)cc2)c1=O` was inactive: 0.0643%.
For the compound `COCCNC(=O)c1ccc2c(c1)N=C(C)c1cc(C)ccc1S2`, the “activation” value was inactive: -15.3%.
Under `NS(=O)(=O)c1ccc2nc(NC(=O)COc3ccc(Cl)cc3Cl)sc2c1` stands inactive: -10.7%; under `Cc1c(C(=O)NC(C)c2ccccc2)sc2nc3n(c(=O)c12)CCCC3` (stereo unspecified), inactive: -5.66%.
The value for `COc1ccc(N2CC(C(=O)NCc3nnnn3-c3ccc(C)c(C)c3)CC2=O)cc1` (stereo unspecified) was inactive: -8%.
The value for `O=C(Cn1c(SCCOc2ccc(Cl)cc2)nc2ccccc21)N1CCCCC1` was inactive: -31.7%; that for `COc1ccc(-c2nnc3n2N(C(C)=O)C(c2ccc(Cl)c(Cl)c2)=C(C(C)=O)S3)cc1` was inactive: -4.72%.
For the compound `COc1ccccc1NC(=O)Cn1c(=O)c(CNc2ccc(C)cc2)cc2cc3c(cc21)OCCO3`, the “activation” value was inactive: -18.9%.
Under `Cc1cccc(N2C(=O)CSC23C(=O)N(CC(=O)NCc2ccccc2Cl)c2ccccc23)c1` (stereo unspecified) stands inactive: -18.4%.
Under `COc1ccc(CCNC(=O)C(=O)NCC(c2ccco2)S(=O)(=O)c2ccccc2)cc1` (stereo unspecified) stands inactive: -5.94%; under `COc1cccc(C2=CC(c3cc(Br)ccc3F)n3nnnc3N2)c1` (stereo unspecified), inactive: -4.97%; under `COc1ccc2cc3cc(C(=O)N4CCN(c5ccccc5F)CC4)oc3nc2c1`, inactive: -17.1%.
On to `O=c1[nH]c(=O)n(C2CCCCC2)c(O)c1C1=Nc2ccccc2SC(c2ccc(Cl)cc2)C1` (stereo unspecified), for which the “activation” value is inactive: -10.4%.
The value for `COc1ccc(-c2noc(-c3ccc(N4CCN(c5ccccc5)CC4)c([N+](=O)[O-])c3)n2)cc1` was inactive: -1.11%; that for `CC(CNC(=O)CN1C(=O)c2cccnc2Oc2ccc(Cl)cc21)c1ccccc1` (stereo unspecified) was inactive: -11.6%.
The value for `COC(=O)c1ccc(NC(=O)N2CCN(Cc3cc(=O)n4nc(-c5ccc(C)cc5)sc4n3)CC2)cc1` was inactive: -7.6%.
The value for `Cc1cccc(NC(=O)c2ccc3c(c2)CCN3S(=O)(=O)c2ccccc2)c1C` was inactive: -23.7%; that for `COc1cccc(OC)c1C(=O)Nc1nc2c(s1)CCc1ccccc1-2` was inactive: -12.2%.
